What was measured:
[1] = molecular target: T1, mouse PD-1 on doxycycline-induced 32D[pRF770+pRF791] cells (mouse, UniProt Q02242 25-288); test: cell-based or functional assay
T1 sequence (looked up): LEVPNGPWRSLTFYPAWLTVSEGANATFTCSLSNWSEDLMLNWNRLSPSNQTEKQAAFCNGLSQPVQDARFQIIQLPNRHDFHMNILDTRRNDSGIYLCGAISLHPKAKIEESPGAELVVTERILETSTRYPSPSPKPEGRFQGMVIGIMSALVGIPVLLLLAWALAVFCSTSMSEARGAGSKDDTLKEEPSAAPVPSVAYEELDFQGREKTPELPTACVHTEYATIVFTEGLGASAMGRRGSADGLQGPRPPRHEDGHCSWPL

[2] = molecular target: T2, IL-15 signaling receptor on 32D[pRF770+pRF791] cells (human CD122 plus mouse CD132) (human; mouse, UniProt P14784 27-551; P34902 23-369); test: cell-based or functional assay
T2 sequence (looked up) 1: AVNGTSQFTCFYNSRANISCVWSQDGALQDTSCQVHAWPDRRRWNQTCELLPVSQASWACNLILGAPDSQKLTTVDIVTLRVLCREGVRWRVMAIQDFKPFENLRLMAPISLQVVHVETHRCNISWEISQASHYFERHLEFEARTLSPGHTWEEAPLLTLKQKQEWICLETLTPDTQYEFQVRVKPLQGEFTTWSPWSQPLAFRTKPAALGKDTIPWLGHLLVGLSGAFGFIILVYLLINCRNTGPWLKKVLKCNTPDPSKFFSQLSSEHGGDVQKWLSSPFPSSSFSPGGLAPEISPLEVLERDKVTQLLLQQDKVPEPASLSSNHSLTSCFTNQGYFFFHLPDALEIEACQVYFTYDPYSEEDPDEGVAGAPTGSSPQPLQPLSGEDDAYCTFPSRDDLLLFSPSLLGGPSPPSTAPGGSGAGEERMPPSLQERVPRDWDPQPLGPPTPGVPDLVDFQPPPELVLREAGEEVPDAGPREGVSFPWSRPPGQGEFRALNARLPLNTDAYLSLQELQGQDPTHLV
T2 sequence (looked up) 2: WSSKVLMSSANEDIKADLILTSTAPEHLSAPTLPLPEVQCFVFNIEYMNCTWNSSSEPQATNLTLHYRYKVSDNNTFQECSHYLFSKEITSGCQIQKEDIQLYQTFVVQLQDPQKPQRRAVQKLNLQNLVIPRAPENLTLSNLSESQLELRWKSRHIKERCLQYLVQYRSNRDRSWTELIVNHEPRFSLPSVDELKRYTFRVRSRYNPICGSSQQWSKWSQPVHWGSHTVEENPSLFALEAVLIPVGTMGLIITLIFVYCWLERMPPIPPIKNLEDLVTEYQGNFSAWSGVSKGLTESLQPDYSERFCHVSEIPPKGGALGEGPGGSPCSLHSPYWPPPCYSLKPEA

Fold change = EC50 (PD-1(low))/EC50 (PD-1+) [1]: 207 fold
pSTAT5 EC50 on PD-1+ 32D reporter cells [1]: 4.12 pM
pSTAT5 EC50 on PD-1(low) 32D reporter cells [2]: 0.854 nM
B1: xmPD1-IL15 V49R/Y26K (other)
heavy 1: HHHHHHHHGGGGSGSGGEVQLVESGGGLVKPGGSLELSCAASGFTFSSYWMSWVRQAPEKGLEWVAAISPSGGSTYYADSVKGRFTISRDNAKNTLFLQMTSLRSEDTAMYYCAKESWGAYYDLWGQGTTVTVSSASTKGPSVFPLAPCSRSTSESTAALGCLVKDYFPEPVTVSWNSGALTSGVHTFPAVLQSSGLYSLSSVVTVPSSNFGTQTYTCNVDHKPSNTKVDKTVERKCRVRCPRCPAPPVAGPSVFLFPPKPKDTLMISRTPEVTCVVVAVSHEDPEVQFNWYVDGVEVHNAKTKPREEQFNSTFRVVSVLTVVHQDWLNGKEYKCKVSNKGLPSSIEKTISKTKGQPREPQVYTLPPSREEMTKNQVSLTCLVKGFYPSDIAVEWESNGQPENNYKTTPPMLDSDGSFFLYSRLTVDKSRWQQGNVFSCSVMHEALHNHYTQKSLSLSPGK
heavy 2: EVQLVESGGGLVKPGGSLELSCAASGFTFSSYWMSWVRQAPEKGLEWVAAISPSGGSTYYADSVKGRFTISRDNAKNTLFLQMTSLRSEDTAMYYCAKESWGAYYDLWGQGTTVTVSSASTKGPSVFPLAPCSRSTSESTAALGCLVKDYFPEPVTVSWNSGALTSGVHTFPAVLQSSGLYSLSSVVTVPSSNFGTQTYTCNVDHKPSNTKVDKTVERKCEVECPECPAPPVAGPSVFLFPPKPKDTLMISRTPEVTCVVVAVSHEDPEVQFNWYVDGVEVHNAKTKPREEQFNSTFRVVSVLTVVHQDWLNGKEYKCKVSNKGLPSSIEKTISKTKGQPREPQVYTLPPSREEMTKNQVSLTCEVKGFYPSDIAVEWESNGQPENNYKTTPPMLDSDGSFFLYSKLTVDKSRWQQGNVFSCSVMHEALHNHYTQKSLSLSPGSGGGGGTSATATPGA[about 120 residues with changes left out here]
light: DIVMTQSPSSLSVSAGDKVTMSCRASQGISSWLAWYQQKPWQPPKLLIYKASTLESGVPDRFTGSGSGTDFTLTISSVQAEDLAVYYCQQSYSTPWTFGGGTKLEIKGTVAAPSVFIFPPSDEQLKSGTASVVCLLNNFYPREAKVQWKVDNALQSGNSQESVTEQDSKDSTYSLSSTLTLSKADYEKHKVYACEVTHQGLSSPVTKSFNRGEC
